According to PubChem BioAssay AID504832 (National Center for Advancing Translational Sciences (NCATS), 2011):
About 18,000 (5.8%) of roughly 310,000 compounds were called active. Inconclusive means that the source gave no clear call. Such entries were picked first, then a sample of the others. Calls follow the shape of the dose curve; as a rule, active = well fitted inhibition curve with a large enough effect; inconclusive = small, poorly fitted or top-dose-only effect, or another doubt; inactive = no such curve, though single readings can be large or run the other way. No potency is given beside an inconclusive call; the fits are too rough.
Potency is read from the fitted curve at half-maximal effect; tags tell the direction and shape of the fitted curve.

Test: Primary qHTS for delayed death inhibitors of the malarial parasite plastid, 48 hour incubation
Conditions: P. falciparum luciferase growth in erythrocytes; series mostly up to 28.7 µM
Procedure, shortened: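 Firefly luciferase activity from engineered P. falciparum reports growth; inhibitors lower the luminescent signal. Cultures contained 2% hematocrit erythrocytes at 0.1% final parasitemia.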
In the case of CCc1cccc(C)c1NC(=O)COC(=O)c1cc([N+](=O)[O-])ccc1N1CCOCC1, the Potency was inconclusive [inhibitor, single point].
With CCc1ccccc1Nc1nn2c(=O)c3ccc(C(=O)NCc4cccs4)cc3nc2s1 the Potency was active: 9.28 µM.
In the case of CCCCNC(=S)N1CCN(c2ccc(C(C)=O)cc2)CC1, the Potency was inconclusive [inhibitor, partial curve].
With Oc1ccc2ccccc2c1N=Nc1nccs1 the Potency was active: 13.1 µM.
With Cc1ccc2ncnc(Nc3cccc([N+](=O)[O-])c3)c2c1 the Potency was inconclusive [inhibitor, single point].
With COc1cccc(C=Nc2ccccc2C#N)c1O the Potency was “inactive”.
With O=C(NCc1cccs1)c1ccc(N2CCCCC2)nc1 the Potency was inconclusive [inhibitor, single point].
In the case of Cc1cc(NC(=O)CSc2nnc(-c3c[nH]c4ccccc34)n2-c2ccc(F)cc2)no1, the Potency was “inactive”.
For O=C(CN1CCCCC1)N1c2ccccc2Sc2ccc(C(F)(F)F)cc21, the Potency was inconclusive [inhibitor, single point].
For Cc1ccc(S(=O)(=O)N2CCC(=O)N(C(COCc3cccc(C(F)(F)F)c3)Cc3ccccc3)CC2)cc1 (stereo not drawn), the Potency was inconclusive [inhibitor, partial curve].
With Cc1cc(C)cc(NC(=O)Nc2cccc(S(N)(=O)=O)c2)c1 the Potency was inconclusive [inhibitor, single point].
For Cc1nnsc1-c1onc(C)c1C(=O)O/N=C/c1ccc(Cl)cc1, the Potency was “inactive”.
With COc1ccccc1C(=O)NC(=O)COC(=O)C1(C)CC1(Cl)Cl (stereo not drawn) the Potency was “inactive”.
In the case of CC(C)(C)OC(=O)[C@H](Cc1ccccc1)NC(=O)c1nc[nH]c1C(=O)N1CCN(c2ccccc2)CC1, the Potency was “inactive”.
With CCOCCOC(=O)C1=C(C)NC2=C(C(=O)CC(c3cccs3)C2)C1c1ccsc1 (stereo not drawn) the Potency was inconclusive [inhibitor, partial curve].
For CS(=O)(=O)N1CCN=C1SCc1ccc(Br)cc1, the Potency was “inactive”.
With COc1cccc(NC(=O)Cn2c(CCC(=O)O)ccc2-c2cccs2)c1 the Potency was “inactive”.
For COc1ccc(Cn2nnnc2C(c2cc3ccc(OC)cc3[nH]c2=O)N2CCCCCC2)cc1 (stereo not drawn), the Potency was active: 9.28 µM.
With Cn1nccc1C(=O)NC1CCCc2c1cnn2-c1cc(F)cc(F)c1 (stereo not drawn) the Potency was inconclusive [inhibitor, partial curve, poor fit].
With COc1ccc(C2C(C#N)=C(N)OC3=C2C(=O)CC(C)(C)C3)c([N+](=O)[O-])c1OC (stereo not drawn) the Potency was inconclusive [inhibitor, partial curve, poor fit].
For CCOC(=O)c1c(-c2ccccc2)csc1NC(=S)NC(=O)c1ccccc1, the Potency was inconclusive [inhibitor, single point].
With O=C(c1cccc(F)c1)N1CCN(Cc2cccc(Br)c2)CC1 the Potency was inconclusive [inhibitor, partial curve, poor fit].
For Cc1ccc(C(=O)NCCNc2ccc(Cl)cc2[N+](=O)[O-])o1, the Potency was inconclusive [inhibitor, partial curve].
With O=C(NC1CCCCCCC1)C1CCN(c2nc3ccccc3o2)CC1 the Potency was inconclusive [inhibitor, single point].
With CN(c1ccccc1)S(=O)(=O)c1cccc(NC(=O)c2ccc3ncsc3c2)c1 the Potency was inconclusive [inhibitor, single point].
In the case of Cc1ccsc1/C=N/Nc1ccc(F)cc1F, the Potency was inconclusive [inhibitor, single point].
With CCOc1ccc(CNS(=O)(=O)c2cccs2)cc1OCC the Potency was inconclusive [inhibitor, single point].
In the case of COc1ccccc1NS(=O)(=O)c1cc(NC(=O)c2sccc2C)ccc1N1CCOCC1, the Potency was inconclusive [inhibitor, partial curve].
For NC(=NC1CCCCC1)c1ccc(Cl)cc1, the Potency was inconclusive [inhibitor, partial curve, poor fit].
For N#Cc1cc(C#N)c(SCC(=O)N2CC(=O)Nc3ccccc32)nc1N, the Potency was inconclusive [inhibitor, single point].
With CCOc1ccc(N(CC(=O)N2CCN(c3ccccc3OC)CC2)S(=O)(=O)c2ccc(F)cc2)cc1 the Potency was inconclusive [inhibitor, single point].
With O=C(COc1ccccc1C(=O)NCc1ccncc1)Nc1ccc(Br)cc1 the Potency was inconclusive [inhibitor, partial curve, poor fit].
For CCCCNC(=O)CSc1nc(N)c(C(=O)Nc2ccc(OC)cc2)s1, the Potency was “inactive”.
In the case of COc1cc(C)cc2oc(=O)c(CC(=O)N3CCN(C(=O)C4COc5ccccc5O4)CC3)c(C)c12 (stereo not drawn), the Potency was inconclusive [inhibitor, partial curve, poor fit].
In the case of CCn1cc(C(=O)O)c(=O)c2cc(F)c(N3CCNCC3)nc21, the Potency was active: 3.61 µM.
With CCCCCn1c(=O)[nH]c2cc(C(=O)NCc3ccccn3)ccc2c1=O the Potency was inconclusive [inhibitor, single point].
In the case of CCN1CCN(c2ccc(NC(=O)c3ccc(F)cc3)cc2Cl)CC1, the Potency was inconclusive [inhibitor, partial curve, poor fit].
For COC(=O)C(NC(=O)COc1ccccc1)(Nc1nc2c(s1)CCCC2)C(F)(F)F (stereo not drawn), the Potency was inconclusive [inhibitor, full curve, poor fit].
In the case of O=C(Cc1ccccc1)N/N=C/c1ccc(OCC(=O)Nc2ccccc2)cc1, the Potency was inconclusive [inhibitor, single point].
In the case of CC(OC(=O)c1cc2c(s1)CCCCC2)C(=O)NC(N)=O (stereo not drawn), the Potency was “inactive”.
With Cn1c(=O)c2c(nc(N/N=C/c3ccncc3)n2Cc2ccccc2)n(C)c1=O the Potency was inconclusive [inhibitor, single point].
For Cc1nc(-c2ccc(NC(=O)c3ccccc3Br)cc2)cs1, the Potency was “inactive”.
In the case of Cc1ccc(C)c(S(=O)(=O)N2CCCOC2CNC(=O)C(=O)NCCc2ccco2)c1 (stereo not drawn), the Potency was “inactive”.
